Publication PMC4336329 (PLoS ONE, 2015)
Hit rate of the full screen: of about 310,000 compounds, about 2,200 (0.71%) showed an effect of 50% or more. The effect is printed as a negative number. The list shows a part of the results.

The compounds below were run against human ether-à-go-go-related gene (hERG) potassium channel (human, UniProt Q12809) (assay: primary screen, population patch clamp on CHO cells stably expressing hERG).
Chain of human ether-à-go-go-related gene (hERG) potassium channel (Q12809 whole entry, looked up): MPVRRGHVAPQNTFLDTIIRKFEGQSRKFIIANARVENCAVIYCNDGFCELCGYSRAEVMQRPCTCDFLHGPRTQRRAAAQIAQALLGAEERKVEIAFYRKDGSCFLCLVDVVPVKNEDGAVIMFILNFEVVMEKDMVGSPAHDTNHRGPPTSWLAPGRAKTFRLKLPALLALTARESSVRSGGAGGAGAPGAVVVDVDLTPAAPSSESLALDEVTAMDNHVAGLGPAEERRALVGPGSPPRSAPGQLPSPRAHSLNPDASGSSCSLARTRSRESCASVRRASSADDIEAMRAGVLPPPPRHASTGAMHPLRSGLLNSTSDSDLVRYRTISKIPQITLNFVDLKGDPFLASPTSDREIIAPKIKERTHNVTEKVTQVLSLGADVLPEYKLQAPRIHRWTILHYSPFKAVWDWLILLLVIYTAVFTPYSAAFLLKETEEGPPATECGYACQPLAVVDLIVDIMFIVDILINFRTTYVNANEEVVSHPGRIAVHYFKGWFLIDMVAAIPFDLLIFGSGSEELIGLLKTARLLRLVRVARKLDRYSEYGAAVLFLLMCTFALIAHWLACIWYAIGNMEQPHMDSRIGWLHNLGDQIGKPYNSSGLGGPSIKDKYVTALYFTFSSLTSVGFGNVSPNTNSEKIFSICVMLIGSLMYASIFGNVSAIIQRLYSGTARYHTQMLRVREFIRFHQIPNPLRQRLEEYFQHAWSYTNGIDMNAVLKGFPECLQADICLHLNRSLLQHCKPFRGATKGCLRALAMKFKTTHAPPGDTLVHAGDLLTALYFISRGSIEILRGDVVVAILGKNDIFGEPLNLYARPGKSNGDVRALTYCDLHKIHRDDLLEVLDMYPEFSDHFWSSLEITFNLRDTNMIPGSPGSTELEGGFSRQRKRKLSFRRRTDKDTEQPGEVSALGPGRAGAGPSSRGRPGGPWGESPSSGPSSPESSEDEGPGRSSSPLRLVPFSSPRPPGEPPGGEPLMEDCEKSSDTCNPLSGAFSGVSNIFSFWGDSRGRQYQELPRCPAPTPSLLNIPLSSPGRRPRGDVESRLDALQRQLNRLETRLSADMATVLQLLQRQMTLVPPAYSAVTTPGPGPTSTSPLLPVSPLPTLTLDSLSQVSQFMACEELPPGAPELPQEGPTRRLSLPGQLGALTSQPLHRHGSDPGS

| SMILES | hERG current change (%, negative = inhibition) at 1uM [%] |
| --- | --- |
| COc1cccc(N(CC(=O)Nc2cccc(F)c2)S(C)(=O)=O)c1 | 8.43 |
| Cc1ccc(CNC(=O)c2ccccc2SCC(=O)NCC2CCCCC2)cc1 | -2.39 |
| CCOC(=O)C1(C)NC(c2cccs2)C2C(=O)N(c3ccccc3)C(=O)C21 (centres unmarked) | 17.5 |
| CCCCCC(=O)OC(CN1CCCC1=O)C[NH+]1CCCCCC1.[Cl-] (centres unmarked) | -2.68 |
| COC(=O)c1ccc(CSc2nnc(NC(=O)C3CC(=O)N(c4ccc5c(c4)OCCO5)C3)s2)cc1 (centres unmarked) | 10.2 |
| COc1ccc(-c2cc(C(F)(F)F)nc(S(=O)(=O)CCC(=O)N3CCOCC3)n2)cc1 | 10.9 |
| COc1cccc2c1Oc1ncccc1N(C(=O)CCC(=O)NCc1ccccc1Cl)C2 | 8.41 |
| C=CCN1C(=O)NC(=O)/C(=C\c2ccc(-c3ccccc3[N+](=O)[O-])o2)C1=O | 4.02 |
| COc1cc(/C=C2\SC(=S)N(Nc3ccccc3)C2=O)ccc1O | 5.31 |
| Cc1cccc(NC(=O)NCC(c2ccc(F)cc2)N2CCN(C)CC2)c1 (centres unmarked) | -1.38 |
| O=C(Nc1nc(-c2ccc(S(=O)(=O)N3CCCCCC3)cc2)cs1)c1cccs1 | 12.8 |
| Fc1ccc(-c2csc(N3CCSCC3)n2)cc1 | 15.7 |
| CCCC(C)NC(=S)NC(=O)c1cc(S(=O)(=O)N2CCOCC2)ccc1C (centres unmarked) | 7.96 |
| Cc1nnc(SC(C)C(=O)Nc2ccc3ccccc3c2)[nH]c1=O (centres unmarked) | 19.2 |
| O=C(c1ccc2ccccc2c1)C1CCCN(S(=O)(=O)c2cccnc2)C1 (centres unmarked) | 13.4 |
| Cc1cc(C)c(C)c(S(=O)(=O)N2CCN(CC(=O)Nc3ccc([N+](=O)[O-])cc3)CC2)c1C | 12.5 |
| COc1cc(C(=S)NC2CCCCC2)ccc1O | 8.16 |
| COc1cc(OC)cc(C(=O)NNC(=O)NC2CCCCC2)c1 | 5.01 |
| O=C(COC(=O)CNS(=O)(=O)c1ccc(F)c(F)c1F)NCCc1ccccc1 | 10.9 |
| c1ccc(NC2=NCCN2CCCC2CCCCC2)cc1 | -6.37 |
| CCOC(=O)CNC(=O)CSc1nc2cccnc2n1Cc1ccccc1 | -30.1 |
| CCCNC(=O)CCn1c(=S)oc2ccccc21 | 10.7 |

| SMILES | hERG current change (%, negative = inhibition) at 1uM [%] |
| --- | --- |
| CCOc1ccc(-c2cn(-c3ccccc3OC)c(=S)[nH]2)cc1 | 7.02 |
| O=C(NCCc1ccccn1)c1nc(Cn2ccc([N+](=O)[O-])n2)no1 | 5.97 |
| CC1CCCN(C(=O)CCCC(=O)N2CCCC(C)C2)C1 (centres unmarked) | 2.51 |
| N#CCCN(Cc1cccnc1)C(=S)NC(=O)C1CC1 | -0.462 |
| COc1ccc(C(=O)C2CCCN(Cc3cccc4c3OCO4)C2)cc1OC (centres unmarked) | -29.3 |
| Cc1ccccc1OCC(=O)N/N=C/c1c(C)nn(-c2ccccc2)c1Cl | 7.93 |
| Cc1ccccc1-n1nnnc1SCC(=O)Nc1ccc(N2CCN(C)CC2)cc1 | -12.3 |
| O=C(O)c1nn(CC(=O)N(C2CCCCC2)C2CCCCC2)c(=O)c2ccccc12 | 10.4 |
| COc1ccc(-c2cc(-c3ccccc3)nc(-c3ccc4c(c3)NC(=O)CO4)c2)cc1 | 4.07 |
| COc1ccc(C2C3=C(CC(C)(C)CC3=O)Nc3cc4c(cc32)OCO4)cc1 (centres unmarked) | 7.67 |
| COc1ccc(/C=C/CN2CCC(Oc3ccc(C(=O)N4CCCCC4)cc3)CC2)cc1 | -15.6 |
| Cc1cc(NC(=O)CSc2c[nH]c3ccccc23)no1 | -20.1 |
| CCOc1cccc2sc(NC(=O)CCS(=O)(=O)c3ccccc3)nc12 | 14 |
| Cc1nc2scc(C)n2c(=O)c1S(=O)(=O)N1CCN(c2ccccc2F)CC1 | 5.13 |
| C=CCn1c(O)c(C(C)=Nc2ccc(NC(C)=O)cc2)c(=O)[nH]c1=O | 8.23 |
| O=C(NCc1cccnc1)c1ccc(N2CCOCC2)c([N+](=O)[O-])c1 | 4.84 |
| CC(C)NC(=O)c1ccc2c(=O)n(Cc3ccco3)c(=S)[nH]c2c1 | 8.77 |
| COc1ccccc1CNC(=O)C1CCN(S(=O)(=O)c2ccc3c(c2)CC(C)N3C(=O)C2CC2)CC1 (centres unmarked) | 15.8 |
| COc1ccc(Sc2nc(-c3ccccc3)ncc2C(=O)O)cc1 | 13.3 |
| O=C(Nc1ccc2nsnc2c1)N1CCCCCC1 | 6.75 |
| COc1cc2c(cc1OC)C1=C(C#N)CCC(=O)N1CC2 | 11.4 |
| Cc1ccc(NC(=O)CCl)c(C)c1 | 15.7 |
